Here are results for 51 compounds from article PMC6919601, “Identification of Plasmodium dipeptidyl aminopeptidase allosteric inhibitors by high throughput screening” (PLoS ONE, 2019).

Hit rate of the full screen: of about 110,000 compounds, about 230 (0.21%) showed an effect of 50% or more. The list shows a part of the results.
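Note: 30 min substrate incubation versus DMSO and 10 µM JCP410 controls.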

Sequence of DPAP1 (Q8IIJ9 whole entry, looked up): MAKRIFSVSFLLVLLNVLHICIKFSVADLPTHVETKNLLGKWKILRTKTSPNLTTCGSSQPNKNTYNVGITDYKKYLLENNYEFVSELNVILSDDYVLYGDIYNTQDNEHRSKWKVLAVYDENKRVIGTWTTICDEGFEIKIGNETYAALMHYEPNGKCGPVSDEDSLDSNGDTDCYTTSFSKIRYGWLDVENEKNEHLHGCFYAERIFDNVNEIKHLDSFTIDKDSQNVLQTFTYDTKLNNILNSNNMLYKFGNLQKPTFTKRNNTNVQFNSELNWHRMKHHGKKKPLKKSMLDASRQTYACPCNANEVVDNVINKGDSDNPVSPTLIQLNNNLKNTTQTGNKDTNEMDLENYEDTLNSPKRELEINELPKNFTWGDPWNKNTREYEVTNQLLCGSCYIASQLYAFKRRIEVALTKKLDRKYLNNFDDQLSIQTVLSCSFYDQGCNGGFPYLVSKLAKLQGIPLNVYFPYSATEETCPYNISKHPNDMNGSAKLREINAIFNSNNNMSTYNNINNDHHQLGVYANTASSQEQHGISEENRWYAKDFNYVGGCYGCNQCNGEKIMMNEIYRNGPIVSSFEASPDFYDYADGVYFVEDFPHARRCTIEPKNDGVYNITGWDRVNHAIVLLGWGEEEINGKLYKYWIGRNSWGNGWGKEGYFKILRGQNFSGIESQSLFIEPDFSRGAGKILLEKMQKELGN

The assay concerns the target DPAP1 (Plasmodium falciparum, UniProt Q8IIJ9). Kind of assay: primary screen, percent inhibition; read by cleavage of a fluorogenic dipeptide substrate; higher = more effect of the substance. More on the design: species or system P. falciparum D10 trophozoite lysates; single well.
For `O=[N+]([O-])c1ccc(CN2CCN(c3ccc4ccccc4n3)CC2)cc1`, the “% Inhibition @ 10 uM” value was -4.96%.

As for `Cc1ccc2cc3cc(C(=O)NCCCOC(C)C)sc3nc2c1`, the “% Inhibition @ 10 uM” value is reported as 7.07%.

As to `CCOC(=O)c1c(C)oc2nc(C)nc(NCCCN(Cc3ccco3)C(C)CC)c12` (stereo not drawn), the “% Inhibition @ 10 uM” value stood at 6.68%.

In the case of `COc1cc(CNC2CCCCC2)ccc1O`, the “% Inhibition @ 10 uM” value is 0.777%.

Turning to `CCN(Cc1ccccc1)Cc1cccnc1`, the “% Inhibition @ 10 uM” value is -4.14%.

As for `COCCCNC(=O)CSc1nc2c(sc3ccccc32)c(=O)n1CCCC(=O)NCCO`, the “% Inhibition @ 10 uM” value was found to be 1.38%.

`O=C(O)c1ccc(N2C(=O)C3C4C=CC(CC4)C3C2=O)cc1` (stereo not drawn): the “% Inhibition @ 10 uM” value is given as 0.431%.

Turning to `Cc1c(C#N)c(/N=C/N(C)C)c(C(=O)c2ccccc2)n1-c1ccccc1`, the “% Inhibition @ 10 uM” value is -1.48%.

Regarding `CCN(CC)c1ncnc2scc(-c3ccccc3)c12`, the “% Inhibition @ 10 uM” value is -8.18%.

Take `CC(C)C[C@H]1C(=O)N[C@@H](CCCNC(=O)OC(C)(C)C)C(O)N1C(=O)OCc1ccccc1` (stereo partly drawn): the “% Inhibition @ 10 uM” value was 4.33%.

`COc1ccccc1NC(=O)COc1ccc(Cl)cc1Cl`: the “% Inhibition @ 10 uM” value is reported as -0.999%.

Regarding `CCNc1nc(OC)nc(Oc2ccc(=O)n(C)n2)n1`, the “% Inhibition @ 10 uM” value came out at 0.275%.

As to `N#CC1=C(N)N(c2ccccc2F)C2=C(C(=O)CCC2)C1c1ccccc1` (stereo not drawn), the “% Inhibition @ 10 uM” value was 4.08%.

For the compound `CCN(Cc1ccccc1)C(=O)Cn1nc(Cc2ccncc2)c2ccccc2c1=O`, the “% Inhibition @ 10 uM” value was -6.52%.

For `O=C(NCCSc1c[nH]c2ccccc12)c1ccc2c(c1)OCO2`, the “% Inhibition @ 10 uM” value was -2.49%.

Consider `COc1ccc(CN2CCSCC2)c2ccccc12`, for which the “% Inhibition @ 10 uM” value is -2.34%.

For the compound `O=C(CCCc1ccccc1)Nc1cccc2ccccc12`, the “% Inhibition @ 10 uM” value amounted to 1.33%.

Turning to `CCOC(=O)N1CCN(CCC(=O)c2ccc(Cl)cc2)CC1`, the “% Inhibition @ 10 uM” value is reported as 6.78%.

As for `CC1=C(C(=O)OCCOc2ccccc2)C(c2c(Cl)cccc2Cl)CC(=O)N1` (stereo not drawn), the “% Inhibition @ 10 uM” value was determined as 3.67%.

As to `Cc1ccc(CCNC(=O)C2CCCN(c3nnc(C)c4c(C)n(-c5ccc(C)cc5)nc34)C2)cc1` (stereo not drawn), the “% Inhibition @ 10 uM” value worked out at 2.58%.

With `c1ccc(C2NCCn3cccc32)cc1` (stereo not drawn), the “% Inhibition @ 10 uM” value came out at 4.57%.

With `Cc1cc(OCC(=O)Nc2nc3ccccc3s2)cc(C)c1Cl`, the “% Inhibition @ 10 uM” value is listed as 14.6%.

As to `O=C1NCC(=O)N2CCCC12` (stereo not drawn), the “% Inhibition @ 10 uM” value is 4.84%.

On to `O=C(NCc1ccccc1)N1CCC(N2CCCCC2)CC1`, for which the “% Inhibition @ 10 uM” value is reported as -2.28%.

As to `Fc1ccccc1C1CC(c2cccnc2)Nc2nc3ccccc3n21` (stereo not drawn), the “% Inhibition @ 10 uM” value was -1.62%.

In the case of `Cc1cc(O)c2c(C)c(CC(=O)N3CCOCC3)c(=O)oc2c1`, the “% Inhibition @ 10 uM” value is -2.57%.

For `COc1ccccc1C(=O)n1nc(-c2ccccc2)nc1NCc1ccccc1`, the “% Inhibition @ 10 uM” value is reported as 0.628%.

With `COc1ccc(C(C)C)cc1S(=O)(=O)Nc1cccnc1`, the “% Inhibition @ 10 uM” value is -6.02%.

Turning to `c1cncc(CNc2ccc3ccccc3c2)c1`, the “% Inhibition @ 10 uM” value came to 3.44%.

Turning to `CC1=C(c2ccc(C)c(C)c2)S(=O)(=O)NC1=O`, the “% Inhibition @ 10 uM” value turned out to be 0.0882%.

Take `O=C(Cc1ccccc1)Nc1ccc(Cc2ccc(NC(=O)Cc3ccccc3)c(C(=O)O)c2)cc1C(=O)O`: the “% Inhibition @ 10 uM” value was determined as 9.29%.

As for `CC(C)Cn1cc(NC(=O)NCCCN(C)C2CCCCC2)c2ccccc2c1=O`, the “% Inhibition @ 10 uM” value was -3.31%.

As to `CCc1nc(N2CCOCC2)c(C#N)c2c1COC(C)(C)C2`, the “% Inhibition @ 10 uM” value was 3.76%.

Consider `CC(C)c1ccc(N(CC(=O)N2CCCCCC2)S(=O)(=O)c2ccccc2)cc1`, for which the “% Inhibition @ 10 uM” value stood at 0.475%.

On to `CCOc1ccc(N(C(C)C(=O)Nc2ccc(Br)c(C)c2)S(C)(=O)=O)cc1` (stereo not drawn), for which the “% Inhibition @ 10 uM” value came to 3.06%.

Turning to `O=C(CCn1c(=O)c2cccn2c2cccnc21)N1CCCCCC1`, the “% Inhibition @ 10 uM” value is listed as -3.56%.

For `CN(Cc1ccccc1)C(=O)Cn1cccc1C(=O)c1ccccc1`, the “% Inhibition @ 10 uM” value is -5.89%.

For the compound `CCCNC(=O)C1CCCN(c2nc3c(C)cc(C)cc3s2)C1` (stereo not drawn), the “% Inhibition @ 10 uM” value is recorded as 1.8%.

Consider `CN1C(C(=O)NCc2cccs2)=CC(c2ccc(F)cc2)=NS1(=O)=O`, for which the “% Inhibition @ 10 uM” value is given as 3.92%.

For `Cc1cccc(N2C(=O)C3C(C2=O)C2C=CC3C23CC3c2ccccc2)c1` (stereo not drawn), the “% Inhibition @ 10 uM” value is listed as -2.15%.

Regarding `C=CCSc1nc(O)c(C(C)CC)c(O)n1` (stereo not drawn), the “% Inhibition @ 10 uM” value is given as 14.5%.

With `O=C1C2C3C=CC(C2C(=O)N1CCCO)C1C2C(=O)N(CCCO)C(=O)C2C31` (stereo not drawn), the “% Inhibition @ 10 uM” value stood at 0.291%.

Turning to `COc1cc(CNCc2c(C(=O)O)n(C)c3ccccc23)cc(OC)c1OC`, the “% Inhibition @ 10 uM” value is given as -1.6%.

With `CCCCCOc1ccc(NC(=O)C2C3C=CC(C3)C2C(=O)O)cc1` (stereo not drawn), the “% Inhibition @ 10 uM” value is on record as -3.1%.

As to `COc1ccc(C2(C(=O)NC3CCCCC3)CCCC2)cc1OC`, the “% Inhibition @ 10 uM” value was -6.43%.

For the compound `CC(C(=O)Nc1ccccn1)N1Cc2ccccc2C1=O` (stereo not drawn), the “% Inhibition @ 10 uM” value was determined as 2.87%.

Turning to `C=CCN1/C(=N\C(=O)C(C)(C)C)SC2CS(=O)(=O)CC21` (stereo not drawn), the “% Inhibition @ 10 uM” value is on record as -2.92%.

As for `O=C(COc1ccc(S(=O)(=O)NC2CCCC2)cc1)NCc1ccc(Cl)cc1`, the “% Inhibition @ 10 uM” value was -1.61%.

For the compound `CSc1ccc(CCNC(=O)C2CCCN(S(=O)(=O)N3CCOCC3)C2)cc1` (stereo not drawn), the “% Inhibition @ 10 uM” value is given as 3.35%.

`CCN1CCCC1CNC(=O)CSc1c2c(nc3ccc(Cl)cc13)CCCC2` (stereo not drawn): the “% Inhibition @ 10 uM” value was -4.96%.

Regarding `CCOc1cc(/C=C2\C(=N)N3N=C(S(C)(=O)=O)SC3=NC2=O)ccc1OC(C)c1ccccc1` (stereo not drawn), the “% Inhibition @ 10 uM” value is given as 3.48%.
